# Out of some 310,000 compounds screened, about 14,000 (4.5%) showed an effect of 50% or more. Effects have a minus sign here. The list shows a part of the results.
# Molecular target: human ether-à-go-go-related gene (hERG) potassium channel (human, UniProt Q12809)
# Assay: primary screen, population patch clamp on CHO cells stably expressing hERG
# 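Also: peak tail current of the secondary pulse compared with the same well before compound.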
# human ether-à-go-go-related gene (hERG) potassium channel, sequence (Q12809 whole entry, looked up): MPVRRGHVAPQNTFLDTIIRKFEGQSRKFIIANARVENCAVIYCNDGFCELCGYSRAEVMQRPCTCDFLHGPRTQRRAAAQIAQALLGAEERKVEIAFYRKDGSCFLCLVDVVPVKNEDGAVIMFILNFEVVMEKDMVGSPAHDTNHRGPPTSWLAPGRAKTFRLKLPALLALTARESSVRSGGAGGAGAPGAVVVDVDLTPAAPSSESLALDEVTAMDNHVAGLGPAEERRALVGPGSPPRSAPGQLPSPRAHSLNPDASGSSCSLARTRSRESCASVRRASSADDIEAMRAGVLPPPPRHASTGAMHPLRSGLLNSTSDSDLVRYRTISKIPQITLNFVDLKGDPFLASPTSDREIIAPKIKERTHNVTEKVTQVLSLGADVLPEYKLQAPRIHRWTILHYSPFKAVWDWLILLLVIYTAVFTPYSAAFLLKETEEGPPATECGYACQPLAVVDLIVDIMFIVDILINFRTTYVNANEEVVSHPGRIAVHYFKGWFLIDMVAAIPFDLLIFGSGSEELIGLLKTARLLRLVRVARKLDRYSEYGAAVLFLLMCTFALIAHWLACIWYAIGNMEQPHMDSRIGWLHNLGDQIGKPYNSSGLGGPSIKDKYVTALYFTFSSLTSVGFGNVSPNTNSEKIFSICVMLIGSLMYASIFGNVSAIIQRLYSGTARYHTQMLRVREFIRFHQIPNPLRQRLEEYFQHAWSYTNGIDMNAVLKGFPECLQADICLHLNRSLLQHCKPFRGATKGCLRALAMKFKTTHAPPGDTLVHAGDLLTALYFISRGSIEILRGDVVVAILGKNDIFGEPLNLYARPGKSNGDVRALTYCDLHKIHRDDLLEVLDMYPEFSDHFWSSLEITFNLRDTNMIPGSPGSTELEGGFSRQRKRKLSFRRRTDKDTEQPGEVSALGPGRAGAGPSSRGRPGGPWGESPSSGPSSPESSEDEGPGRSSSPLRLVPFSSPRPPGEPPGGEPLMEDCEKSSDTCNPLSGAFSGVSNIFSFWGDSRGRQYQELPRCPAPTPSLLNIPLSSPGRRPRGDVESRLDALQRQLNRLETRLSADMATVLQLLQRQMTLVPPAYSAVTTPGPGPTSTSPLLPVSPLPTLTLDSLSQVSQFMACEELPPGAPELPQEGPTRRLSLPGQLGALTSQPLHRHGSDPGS
row,SMILES,"hERG current change (%, negative = inhibition) at 10uM [%]"
1,COc1ccc(S(=O)(=O)N(C)C)cc1NC(=O)Cc1c[nH]c2ccccc12,5.99
2,COc1ccc(S(=O)(=O)N(C)CC(=O)N2CCCCC2)cc1Cl,14.2
3,Cc1cc(C(=O)OCC(=O)Nc2ccc(S(N)(=O)=O)cc2)c2ccccc2n1,27.5
4,Cc1ccc(S(=O)(=O)NCC2CCC(C(=O)N3CCOCC3)CC2)cc1 (centres unmarked),-4.69
5,O=C(c1ccc(Cl)cc1)C1CCCN(C2CCSCC2)C1 (centres unmarked),-78.9
6,CCOc1cccc(NC(=O)c2cccc(F)c2)c1,16.8
7,Cc1ccccc1OCCC(=O)OCC(=O)NCCc1ccccc1,-0.876
8,Cc1ccccc1C(=O)NC(CC(C)C)C(=O)Nc1cccc(S(=O)(=O)N(C)C)c1 (centres unmarked),0.428
9,O=C1C=C(OCc2ccccc2)CN1,7.28
10,O=c1c2ccccc2oc2ccc(NCCCn3ccnc3)cc12,9.83
11,COc1ccccc1CN(C)C(=O)c1cc(-c2cc(OC)c(OC)c(OC)c2)nc2ccccc12,12.9
12,CCSc1nnc(NC(=O)C2CC(=O)N(Cc3ccc(C)cc3)C2)s1 (centres unmarked),-19.1
13,COc1ccc(/C=C2\C(=O)ON=C2c2cccc([N+](=O)[O-])c2)cc1,9.07
14,C=CCNC(=S)NNC(=O)c1ccccc1OCC,17.2
15,COc1ccccc1C(=O)NCc1nnc(SCC(=O)Nc2nccs2)n1C,6.5
16,CC(C)N=c1c([N+](=O)[O-])nn(C)n1O,-22.3
17,COc1ccc(-n2nc3c(c2NC(=O)CCl)CSC3)cc1,-1.63
18,Cc1ccccc1N(CC(=O)NCC1CCCO1)C(=O)C1(C)CC(=O)N=C2C=CC=CN21 (centres unmarked),-1.4
19,Cn1c(-c2ccc3c(c2)OCO3)cnc1NCc1cccc(Cl)c1.O=C(O)C(=O)O,-74
20,NC(=O)Cn1c(=O)n(Cc2ccco2)c(=O)c2c3c(sc21)CCCCC3,5.2
21,CC(C)(C)NC(=O)COc1ccc(CNn2nnnc2N)cc1,17.4
22,Cc1nn(-c2ccccn2)c2c1C(=O)CC(C)(C)C2Br (centres unmarked),-8.24

row,SMILES,"hERG current change (%, negative = inhibition) at 10uM [%]"
1,COc1cc(NC(=O)c2cc3ccccc3o2)ccc1NC(=O)c1ccco1,-9.81
2,CCOC(=O)C1(CC2CCCCO2)CCN(C2CCSCC2)CC1 (centres unmarked),-37.8
3,Clc1ccc(-c2nnc(-c3ccc(Br)cc3)c(N3CCSCC3)n2)cc1,-11.9
4,O=C(/C=C/c1ccc2c(c1)OCCCO2)c1ccccc1O,1.94
5,CCOC(=O)C1=C(O)/C(=C/c2ccc(OCC(=O)O)c(OCC)c2)SC1=Nc1ccccc1,4.15
6,CC1CCc2c(sc(NC(=O)c3ccc(N4C(=O)CCC4=O)cc3)c2C(N)=O)C1 (centres unmarked),-10.4
7,Cc1ccc(C(CC(=O)O)Nc2nc(N3CCOCC3)nc(N3CCOCC3)n2)cc1 (centres unmarked),12.6
8,CCCCC(=O)OCC(=O)Nc1cccc(S(=O)(=O)NC2=NCCCCC2)c1,-9.56
9,O=C(COc1ccc(F)cc1Cl)Nc1ccc(S(=O)(=O)Nc2nccs2)cc1,1.69
10,CSc1ccccc1NC(=O)CN(C)C(=O)CNc1ccc(C(F)(F)F)cc1[N+](=O)[O-],-4.68
11,O=C(COC(=O)c1cc(=O)[nH]c2ccccc12)NCc1cccc(Cl)c1,-15
12,COc1ccccc1N1CCN(C(=O)c2nn(C)c3c2CS(=O)(=O)c2ccccc2-3)CC1,2.07
13,COc1ccc(OC)c(NC(=O)CSc2nc(N3CCOCC3)nc(N3CCOCC3)n2)c1,-0.35
14,COc1cc(-c2nc3cnccn3c2Nc2c(C)cccc2C)ccc1O,12
15,CC(=O)Oc1cccc(N2C(=O)c3ccc(C(=O)Nc4cccnc4)cc3C2=O)c1,2.32
16,CCCSc1nsc(NC(=O)C(c2ccccc2)c2ccccc2)n1,19.3
17,Cc1cc(C(=O)CSc2n[nH]c(N)n2)c(C)n1-c1ccc2c(c1)OCO2,-19.2
18,[O-][n+]1cccc2c(Br)cc(Br)c(O)c21,-6.84
19,COc1cccc2c1OCC1COc3c(c(=O)n(C)c(=O)n3C)C21 (centres unmarked),-4.01
20,O=C1CCCN1CCC1CCCCN1Cc1nc(-c2cnccn2)no1 (centres unmarked),15.8
21,Cc1ccccc1NS(=O)(=O)c1cc(C(=O)Nc2cccnc2)ccc1C,15.7
22,CCCn1cc(S(=O)(=O)c2ccc(C)cc2)c(=O)c2cc(OCC)ccc21,-36.4

# — PMC4336329 (PLoS ONE, 2015)
